Test results reported in patent US20210002295A1, “SMALL MOLECULE DEGRADERS THAT RECRUIT DCAF15” (Dana-Farber Cancer Institute, Inc., priority 2017, published 2021).

molecular target: biotinylated DCAF15 and Bodipy-FL-labelled Bromodomain 1 (BD1) in BRD4 (Homo sapiens, UniProt O60885+Q66K64); test: Assay A time-resolved fluorescence resonance energy transfer (TR-FRET); format: binding; conditions: DCAF15 150 nM, BRD4 BD1 150 nM, Tb-streptavidin 2 nM

Compound	EC50
Cc1sc2c(c1C)C(c1ccc(Cl)cc1)=N[C@@H](CC(=O)NCCOCCOCCOCCNC(=O)c1cccc(S(=O)(=O)Nc3ccc(C)c4c(C#N)c[nH]c34)c1)c1nnc(C)n1-2	> 10 µM
Cc1sc2c(c1C)C(c1ccc(Cl)cc1)=N[C@@H](CC(=O)NCCOCCOCCOCCOCCNC(=O)c1cccc(S(=O)(=O)Nc3ccc(C)c4c(C#N)c[nH]c34)c1)c1nnc(C)n1-2	> 10 µM
Cc1sc2c(c1C)C(c1ccc(Cl)cc1)=N[C@@H](CC(=O)NCCOCCOCCOCCOCCOCCNC(=O)c1cccc(S(=O)(=O)Nc3ccc(C)c4c(C#N)c[nH]c34)c1)c1nnc(C)n1-2	> 10 µM
Cc1sc2c(c1C)C(c1ccc(Cl)cc1)=N[C@@H](CC(=O)NCCOCCOCCNC(=O)c1cccc(S(=O)(=O)Nc3ccc(C)c4c(C#N)c[nH]c34)c1)c1nnc(C)n1-2	> 10 µM
Cc1sc2c(c1C)C(c1ccc(Cl)cc1)=N[C@@H](CC(=O)NCCCCCCNC(=O)c1ccc(S(=O)(=O)Nc3ccc(C)c4c(C#N)c[nH]c34)cc1)c1nnc(C)n1-2	> 10 µM
Cc1sc2c(c1C)C(c1ccc(Cl)cc1)=N[C@@H](CC(=O)NCCOCCOCCOCCOCCOCCNC(=O)c1ccc(S(=O)(=O)Nc3ccc(C)c4c(C#N)c[nH]c34)cc1)c1nnc(C)n1-2	> 10 µM
Cc1sc2c(c1C)C(c1ccc(Cl)cc1)=N[C@@H](CC(=O)NCCOCCOCCNC(=O)c1ccc(S(=O)(=O)Nc3ccc(C)c4c(C#N)c[nH]c34)cc1)c1nnc(C)n1-2	> 10 µM
Cc1sc2c(c1C)C(c1ccc(Cl)cc1)=N[C@@H](CC(=O)NCCOCCOCCOCCNC(=O)c1ccc(S(=O)(=O)Nc3ccc(C)c4c(C#N)c[nH]c34)cc1)c1nnc(C)n1-2	> 10 µM
